Over roughly 33,000 sequences, “E-score (-0.5 to 0.5)” has its median near -0.041; the highest 2% begin near 0.37. Some of the results follow.
target: T1, Ecm22 (UniProt Q05958); assay: PBM E-score (8-mer binding enrichment) (E-score (-0.5 to 0.5)); higher = stronger / more preferred TF binding; most listed sequences are background and not binding sites; conditions: protein concentration: 200 nM; construct: GST-full length
T1 sequence: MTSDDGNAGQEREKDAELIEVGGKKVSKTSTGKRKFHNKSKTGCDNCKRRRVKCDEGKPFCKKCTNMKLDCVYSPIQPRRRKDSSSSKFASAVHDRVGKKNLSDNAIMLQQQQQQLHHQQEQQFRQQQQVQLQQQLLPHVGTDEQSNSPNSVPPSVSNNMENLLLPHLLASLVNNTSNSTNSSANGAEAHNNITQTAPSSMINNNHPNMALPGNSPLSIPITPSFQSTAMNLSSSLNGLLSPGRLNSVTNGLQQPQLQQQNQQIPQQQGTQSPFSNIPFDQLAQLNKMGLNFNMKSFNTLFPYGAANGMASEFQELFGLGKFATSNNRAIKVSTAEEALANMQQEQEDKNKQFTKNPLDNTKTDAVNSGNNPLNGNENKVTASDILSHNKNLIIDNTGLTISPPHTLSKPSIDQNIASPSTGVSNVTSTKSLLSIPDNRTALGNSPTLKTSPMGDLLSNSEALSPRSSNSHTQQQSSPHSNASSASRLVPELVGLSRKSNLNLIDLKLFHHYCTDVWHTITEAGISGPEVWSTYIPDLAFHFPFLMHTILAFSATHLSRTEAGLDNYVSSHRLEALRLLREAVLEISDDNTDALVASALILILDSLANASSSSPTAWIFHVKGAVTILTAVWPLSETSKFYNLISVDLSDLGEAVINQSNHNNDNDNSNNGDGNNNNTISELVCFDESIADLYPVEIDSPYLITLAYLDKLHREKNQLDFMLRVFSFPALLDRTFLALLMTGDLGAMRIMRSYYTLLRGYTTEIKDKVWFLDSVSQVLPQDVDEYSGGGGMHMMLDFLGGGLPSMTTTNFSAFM
Procedure: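 Universal 'all 10-mer' protein binding microarrays (Agilent AMADID 015681) probed with GST-tagged S. cerevisiae TFs (full-length or DBD) made by in vitro transcription/translation (PURExpress), about 100-200 nM. Bound TF was detected with fluorescent anti-GST. Each ungapped 8-mer (which stands for itself and its reverse complement) is scored by the PBM enrichment score (E-score), a modified Wilcoxon-Mann-Whitney statistic from -0.5 to +0.5, computed with the Universal PBM Analysis Suite. Scale: above 0.35 generally sequence-specific binding.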

Row | Sequence | PBM E-score
1 | ATACTCGG | 0.146
2 | AGCAAACC | 0.00737
3 | ACGGTCCC | 0.066
4 | CGGTCACG | 0.086
5 | GCCGGCTA | -0.308
6 | ATCTAGTC | 0.0312
7 | AAACTTAC | 0.027
8 | AAAACTGT | -0.0446
9 | CGTTATGA | -0.0262
10 | CGTCCTCC | -0.039
11 | AGCTAAAC | 0.195
12 | CTGACGAA | 0.0373
13 | AGAGTCGA | -0.0661
14 | CCCCACCA | 0.0399
15 | ATGGGATC | -0.12
16 | GCACTGCA | -0.0415
17 | GACGCTAA | -0.0642
18 | AGTTGATA | 0.0261
19 | AGTCACTC | -0.00586
20 | CTGAACAG | -0.166
21 | GACTCACA | -0.3
22 | ACGCGAAA | 0.224
23 | CTCGATCA | 0.0997
24 | GTCTTATA | -0.00247
25 | ACAGGGCA | -0.0982

Row | Sequence | PBM E-score
26 | CACCTGTC | -0.0885
27 | AGCACTCC | -0.13
28 | GGTATTCA | 0.0401
29 | CAGATAAG | 0.0291
30 | CTGGAACA | -0.167
31 | GTCCCGCA | -0.192
32 | GCGCTGCA | -0.0611
33 | CCCGCTGC | -0.205
34 | CGCGCTGC | -0.171
35 | CGCGTGTC | 0.169
36 | TATGGGCA | -0.0891
37 | TGTTTAAA | -0.172
38 | GCGGCCCC | -0.146
39 | AGGTCAGG | -0.313
40 | ATCTGGAC | -0.199
41 | GGATTTCA | -0.0584
42 | ATTTTAGC | -0.0648
43 | ATTAGGTG | -0.085
44 | ACAGCTAA | -0.195
45 | GAAAAGCC | -0.164
46 | ATCATACA | 0.0909
47 | ATCATTAG | 0.0862
48 | GAACAAGC | 0.102
49 | ACCTGGTA | -0.029
50 | CTTGGTCA | -0.13

Row | Sequence | PBM E-score
51 | GCACGCTA | -0.0608
52 | CGCTCATC | 0.184
53 | GCGGAAGA | -0.0573
54 | CAGATCGC | 0.0978
55 | AGCGGGAG | -0.188
56 | GGGTCACC | -0.332
57 | ATATCCCC | -0.266
58 | AGGGCTAC | -0.117
59 | ATGGGTCC | -0.173
60 | AGCAGCTC | -0.111
61 | CCAGACCG | 0.22
62 | CATCCACC | -0.104
63 | GTAAGAAA | 0.135
64 | GTGAGTCA | -0.194
65 | ATTAGTGA | 0.0244
66 | CATAACCA | -0.0223
67 | AGCCTCGC | 0.153
68 | AGCATTGG | -0.171
69 | AACGAGTC | 0.419
70 | AGCCCGGC | -0.0285
71 | CCCACAGC | 0.00531
72 | AAAGTACT | 0.0287
73 | ATAATTAG | -0.0911
74 | AAAGCGTC | -0.0658
75 | TCCCATCA | -0.271

Row | Sequence | PBM E-score
76 | ACCATGTG | -0.0748
77 | GTACAAAC | 0.145
78 | GCGTGGAA | 0.0374
79 | GGCATGTA | 0.26
80 | TATGGTAA | 0.0507
81 | AACCCAGG | -0.198
82 | AGTCGGTA | 0.0735
83 | ATTGCGAA | -0.0413
84 | ATCATGCC | -0.237
85 | TGGAAGAA | -0.0155
86 | ACTCTACC | 0.0196
87 | GGTGGTAA | -0.157
88 | CAAAAGTG | -0.259
89 | CGCTGTCC | 0.189
90 | GAGACTCC | -0.135
91 | AGGAGAGA | -0.254
92 | GTCAAGTA | -0.123
93 | GTCCACTA | -0.238
94 | AGTAAAAG | 0.0736
95 | CACTGCGC | -0.179
96 | AAAGAGTG | -0.104
97 | CGAAAGTC | 0.0394
98 | ACGAGAGA | 0.353
99 | AGCTACAA | -0.181
100 | ATGATGGC | -0.122

Row | Sequence | PBM E-score
101 | CGATCCCC | 0.0996
102 | AGCGGCCA | -0.244
103 | AAATCACA | -0.0371
104 | ATTCAGTC | -0.074
105 | AAAATAGA | 0.0199
106 | CCCGTGCC | -0.0282
107 | GATGCTAC | 0.0998
108 | CAGTTATC | -0.132
109 | AGTGCTGC | -0.0275
110 | AAAATCTA | -0.0067
111 | CTATGAGA | -0.193
112 | CAGGTTAA | 0.0872
113 | AAACTCTA | -0.12
114 | GTTTTTAA | -0.00015
115 | AACCCATA | 0.136
116 | AGTGACTG | -0.113
117 | AGCTCAAC | -0.0198
118 | GCTCCACC | -0.0804
119 | ACCCCTCG | 0.151
120 | ATCGCCGG | -0.0654
121 | ACCGTCGG | 0.13
122 | AACTCGGT | 0.235
123 | AATGAAAT | 0.128
124 | TCTCTGAA | -0.169
125 | AACATTGT | 0.0926

Row | Sequence | PBM E-score
126 | AGTATCCC | 0.036
127 | AAAAAGAA | -0.0275
128 | GCTCTACC | -0.0817
129 | ACATGATG | -0.161
130 | ATAGAATC | -0.045
131 | AATTACGG | 0.109
132 | GCGGTAGA | -0.103
133 | CGCATACA | 0.111
134 | TATACAGA | 0.16
135 | ACTCTTAT | -0.0446
136 | CGCGTCTC | 0.184
137 | TCAGGACA | -0.00888
138 | CATCGCAC | 0.164
139 | GACCGTTA | 0.00349
140 | ACCCACTG | -0.187
141 | CAGTACCC | -0.0859
142 | GGCGTTCA | 0.00425
143 | ACCTAAAA | -0.0708
144 | ACACTACA | 0.057
145 | CGTGACGA | 0.104
146 | TCCCGCAA | -0.0633
147 | GATCACGC | 0.0133
148 | GGAGTTGA | 0.0109
149 | ACGGAGGC | 0.0937
150 | TATTACCA | 0.0587

Row | Sequence | PBM E-score
151 | CCAGTAGG | -0.251
152 | ACGAATAG | 0.303
153 | CTCCTAGC | -0.239
154 | ACTCTCCG | -0.0362
155 | TATAGTAA | 0.124
156 | CCCCCCTC | -0.0564
157 | TAGTACGA | 0.443
158 | CGAGTCGC | 0.156
159 | AAGCGCAT | -0.0835
160 | GACAACAC | 0.168
161 | ACCAATTA | -0.0176
162 | CTTCCAAC | -0.128
163 | CGCAGTCC | 0.0278
164 | GAGGCTTA | -0.265
165 | GTGGCTTA | -0.0969
166 | CGGTAGGC | -0.138
167 | CGTAGCAA | 0.288
168 | AGGGGAGA | -0.206
169 | AGTGTACA | -0.0734
170 | TTTTAAAA | -0.0353
171 | ACACATAA | -0.00795
172 | TCTCGGCA | 0.011
